According to PubChem BioAssay (Tox21):
Where “and” joins values, the source holds several entries; their conditions need not be identical. Equal values may be shown once. This list was built around the results that the source calls inconclusive (neither active nor inactive); the mix of calls is not that of the screen. For some assays here: Potencies beside an inconclusive call are fits to weak or partial responses and may not hold up. Some structures have more than one record in an assay (separate samples or runs), and their calls can disagree. Calls of active or inactive are those of the source. Unless noted, calls follow the shape of the dose curve; as a rule, active = well fitted curve in the direction sought with a large enough effect in the repeat runs; inconclusive = weak or mixed curves; inactive = no such curve, though single readings can be large; an effect the other way counts as inactive or inconclusive.

Legend:
[1] = target: Estrogen receptor beta (Homo sapiens) (UniProt Q92731); experiment: qHTS assay to identify small molecule agonists of the estrogen receptor beta (ER-beta) signaling pathway (AID 1259377; active = well fitted activation curve with a large enough effect in the signal ratio in the repeat runs, not every such curve was filed as active; inconclusive = weak or mixed curves, or effect the other way; the % refers to the signal ratio; as to activation: % is scaled to controls: 0 for no effect and ±100 for the full control effect); details: ER-beta-UAS-bla HEK293T, beta-lactamase FRET ratio, 16 h
How it was run: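 HEK293T ER-beta-UAS-bla; 2% charcoal-stripped FBS; cells pre-incubated 6 hr, compound 16 hr, 37C/5% CO2; LiveBLAzer B/G FRET substrate 2 h RT; fluorescence intensity read.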

[2] = target: Estrogen receptor beta (Homo sapiens) (UniProt Q92731); experiment: qHTS assay to identify small molecule antagonists of the estrogen receptor beta (ER-beta) signaling pathway (AID 1259378; active = well fitted inhibition curve with a large enough effect in the signal ratio in the repeat runs, not every such curve was filed as active; inconclusive = weak or mixed curves, or effect the other way; inactive = no such curve, though single readings can be large or run the other way; the % refers to the signal ratio; as to activity, negative = inhibition: % is scaled to controls: 0 for no effect and ±100 for the full control effect); details: ER-beta-UAS-bla HEK293T, beta-lactamase FRET ratio, 16 h; activity, negative = inhibition: at 92.4 µM (top of the series) unless noted
How it was run: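 ER-beta-UAS-bla HEK293T (GripTite) cells in 2% charcoal-stripped FBS medium were preincubated 6 hr at 37C, dosed with compound, then stimulated with 1 nM E2 (final) for 16 hr; beta-lactamase reporter read by B/G FRET fluorescence after 2 hr substrate loading.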

[3] = qHTS assay to identify small molecule antagonists of the estrogen receptor beta (ER-beta) signaling pathway - cell viability counter screen (AID 1259382); also: nearly all actives have a fitted effect of over 55% in size
How it was run: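 Readout: luminescence, CellTiter-Glo, same wells as bla assay. System: ER-beta-UAS-bla GripTite HEK293T, 2% charcoal-stripped FBS. Exposure: compounds plus 1nM 17-beta-estradiol, 16 hr, 37C.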

[4] = qHTS assay to identify small molecule agonists of the estrogen receptor alpha (ER-alpha) signaling pathway in the presence of an antagonist - cell viability counter screen (AID 1259386);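 also: cells exposed to compounds for 22 h at 37 °C before the viability read; nearly all actives have a fitted effect of over 30% in size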
How it was run: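 The test measures whether compounds kill ER-alpha reporter cells (VM7Luc4E2) under antagonist co-treatment (ICI-182,780, 10.0nM). Fluorescence from CellTiter-Fluor is read after a 22hr exposure.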

[5] = target: Progesterone receptor (Homo sapiens) (UniProt P06401); experiment: qHTS assay to identify small molecule antagonists of the progesterone receptor (PR) signaling pathway (AID 1346795; active = well fitted inhibition curve with a large enough effect in the signal ratio in the repeat runs, not every such curve was filed as active; inconclusive = weak or mixed curves; the % refers to the signal ratio); details: PR-UAS-bla HEK293T, beta-lactamase FRET ratio, 16 h; activity change, negative = inhibition: at 92.4 µM (top of the series) unless noted
How it was run: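 Read-out is fluorescence from the LiveBLAzer B/G FRET substrate, cleaved by a UAS-controlled beta-lactamase in PR-UAS-bla HEK293T cells after 16 hr exposure to compound plus 1 nM promegestone (final), followed by 2 hr at room temperature.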

[6] = qHTS assay to identify small molecule agonists of the progesterone receptor (PR) signaling pathway - cell viability counter screen (AID 1346799; calls by dose curve; also: nearly all actives have a fitted effect of over 45% in size)
How it was run: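 Luminescence from CellTiter-Glo, added after the beta-lactamase FRET read in the same wells, gave cytotoxicity in PR-UAS-bla HEK293T cells treated with compounds for 16 hr at 37C.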

[7] = qHTS assay to identify small molecule agonists of the estrogen receptor beta (ER-beta) signaling pathway - cell viability counter screen (AID 1259380); also: nearly all actives have a fitted effect of over 30% in size
How it was run: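 Measured: luminescence from CellTiter-Glo after 30 min at room temperature, added to wells already read for the LiveBLAzer FRET reporter (2 hr substrate); ER-beta-UAS-bla HEK293T cells had 16 hr compound treatment at 37C, 5% CO2.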

[8] = target: Progesterone receptor (Homo sapiens) (UniProt P06401); experiment: qHTS assay to identify small molecule agonists of the progesterone receptor (PR) signaling pathway (AID 1346784; calls by dose curve; also: nearly all actives have a fitted effect of over 30% in size; as to activation: % is scaled to controls: 0 for no effect and ±100 for the full control effect); details: PR-UAS-bla HEK293T, beta-lactamase FRET ratio, 16 h; activation: at 92.4 µM (top of the series) unless noted
How it was run: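 Beta-lactamase reporter read-out: after 16 hr compound treatment at 37C and a further 2 hr at room temperature with LiveBLAzer B/G FRET substrate, fluorescence was measured in PR-UAS-bla HEK 293T cells grown in 2% charcoal-stripped serum.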

[9] = qHTS assay to identify small molecule antagonists of the progesterone receptor (PR) signaling pathway - cell viability counter screen (AID 1346798); also: nearly all actives have a fitted effect of over 50% in size
How it was run: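 HEK293T PR-UAS-bla, 2% charcoal-stripped FBS; 4 hr pre-plate; cpd + R5020, 16 h 37C; LiveBLAzer read first; then CellTiter-Glo 30 min RT, luminescence.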

[10] = target: Androgen receptor (Homo sapiens) (UniProt P10275); experiment: qHTS assay to identify small molecule agonists of the androgen receptor (AR) signaling pathway in the presence of an antagonist (AID 1259381; calls by dose curve; also: nearly all actives have a fitted effect of over 15% in size; as to activation: % is scaled to controls: 0 for no effect and ±100 for the full control effect)
How it was run: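 Luminescent ONE-Glo read, 30min at room temperature, follows 16hr compound exposure (15 concentrations) of MDA-kb2 cells at 37C, 0% CO2, with nilutamide added at 3.0uM final.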

[11] = qHTS assay to identify small molecule agonists of the androgen receptor (AR) signaling pathway in the presence of an antagonist - cell viability counter screen (AID 1259379); also: nearly all actives have a fitted effect of over 25% in size
How it was run: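 MDA-kb2 viability measured by CellTiter-Fluor fluorescence in the same wells as the luciferase signal; nilutamide 3.0uM final; 15-point compound titration; 16 hr at 37C.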

[12] = qHTS assay to identify small molecule antagonists of the TGF-beta/Smad signaling pathway - cell viability counter screen (AID 1346824); also: nearly all actives have a fitted effect of over 50% in size
How it was run: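 SBE-bla HEK 293T cells were plated overnight at 37 C, then given compounds in DMSO plus TGF-beta1 (added as 0.25 ng/mL solution) for 5 hr. After the bla read, CellTiter-Glo was added to the same wells and luminescence read after 30 min at room temperature.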

[13] = target: Thyrotropin receptor (Homo sapiens) (UniProt P16473); experiment: qHTS assay to identify small molecule antagonists of the thyroid stimulating hormone receptor (TSHR) signaling pathway (AID 1259385; calls by dose curve; also: nearly all actives have a fitted effect of over 20% in size); details: TSHR-HEK293 cAMP HTRF, TSH-stimulated antagonist mode; activity change, negative = inhibition: at 92.4 µM (top of the series) unless noted
How it was run: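 TSHR-HEK293 cells were plated and held 18 h at 37C/5% CO2, then given compound plus Ro20-1724 and stimulated with TSH at 1.5 ng/mL final. After 30 min at room temperature, cAMP was detected with cAMP-d2/anti-cAMP-cryptate (1 h) by fluorescence.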

[14] = activation: at 92.4 µM (top of the series) unless noted
Potency is read from the fitted curve at half-maximal effect; tags tell the direction and shape of the fitted curve or compound fluorescence and quenching.

Chain of UniProt P06401 (P06401 whole entry, looked up): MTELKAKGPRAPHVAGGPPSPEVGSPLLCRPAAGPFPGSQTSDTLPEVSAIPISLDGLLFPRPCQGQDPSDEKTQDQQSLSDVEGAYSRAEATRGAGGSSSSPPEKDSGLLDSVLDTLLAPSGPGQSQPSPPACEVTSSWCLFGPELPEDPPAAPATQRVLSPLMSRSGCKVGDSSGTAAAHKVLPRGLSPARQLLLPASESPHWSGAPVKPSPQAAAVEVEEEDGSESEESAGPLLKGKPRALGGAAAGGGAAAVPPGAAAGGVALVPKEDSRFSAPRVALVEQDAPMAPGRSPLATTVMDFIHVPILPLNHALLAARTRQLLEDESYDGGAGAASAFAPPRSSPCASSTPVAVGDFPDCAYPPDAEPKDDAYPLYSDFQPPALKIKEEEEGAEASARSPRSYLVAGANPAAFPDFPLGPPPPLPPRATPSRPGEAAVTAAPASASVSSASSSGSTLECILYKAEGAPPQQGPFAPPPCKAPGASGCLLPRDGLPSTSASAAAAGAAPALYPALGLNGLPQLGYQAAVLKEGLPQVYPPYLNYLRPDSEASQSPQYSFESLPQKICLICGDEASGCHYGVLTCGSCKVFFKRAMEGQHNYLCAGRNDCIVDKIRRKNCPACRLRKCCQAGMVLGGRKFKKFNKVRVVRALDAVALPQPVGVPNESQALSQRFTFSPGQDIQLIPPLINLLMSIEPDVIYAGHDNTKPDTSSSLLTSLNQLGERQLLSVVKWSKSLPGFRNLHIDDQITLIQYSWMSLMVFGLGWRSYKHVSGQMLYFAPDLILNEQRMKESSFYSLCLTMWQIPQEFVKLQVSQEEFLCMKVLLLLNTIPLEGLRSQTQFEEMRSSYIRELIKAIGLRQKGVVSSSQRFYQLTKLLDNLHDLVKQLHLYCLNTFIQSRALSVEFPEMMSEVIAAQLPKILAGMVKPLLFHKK
Chain of UniProt Q92731 (Q92731 whole entry, looked up): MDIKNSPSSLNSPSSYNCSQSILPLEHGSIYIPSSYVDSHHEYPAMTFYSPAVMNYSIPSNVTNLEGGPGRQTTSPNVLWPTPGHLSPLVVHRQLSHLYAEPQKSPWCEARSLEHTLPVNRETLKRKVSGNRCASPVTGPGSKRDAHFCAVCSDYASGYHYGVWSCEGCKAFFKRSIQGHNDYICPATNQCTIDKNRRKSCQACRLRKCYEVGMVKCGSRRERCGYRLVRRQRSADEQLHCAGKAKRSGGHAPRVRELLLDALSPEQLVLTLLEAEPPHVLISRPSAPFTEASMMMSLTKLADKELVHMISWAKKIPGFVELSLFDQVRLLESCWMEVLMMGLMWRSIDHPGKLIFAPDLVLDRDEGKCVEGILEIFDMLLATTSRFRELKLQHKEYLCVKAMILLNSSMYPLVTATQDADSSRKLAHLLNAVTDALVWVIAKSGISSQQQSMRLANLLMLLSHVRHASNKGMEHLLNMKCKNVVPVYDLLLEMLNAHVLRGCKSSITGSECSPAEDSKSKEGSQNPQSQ
Chain of UniProt P10275 (P10275 whole entry, looked up): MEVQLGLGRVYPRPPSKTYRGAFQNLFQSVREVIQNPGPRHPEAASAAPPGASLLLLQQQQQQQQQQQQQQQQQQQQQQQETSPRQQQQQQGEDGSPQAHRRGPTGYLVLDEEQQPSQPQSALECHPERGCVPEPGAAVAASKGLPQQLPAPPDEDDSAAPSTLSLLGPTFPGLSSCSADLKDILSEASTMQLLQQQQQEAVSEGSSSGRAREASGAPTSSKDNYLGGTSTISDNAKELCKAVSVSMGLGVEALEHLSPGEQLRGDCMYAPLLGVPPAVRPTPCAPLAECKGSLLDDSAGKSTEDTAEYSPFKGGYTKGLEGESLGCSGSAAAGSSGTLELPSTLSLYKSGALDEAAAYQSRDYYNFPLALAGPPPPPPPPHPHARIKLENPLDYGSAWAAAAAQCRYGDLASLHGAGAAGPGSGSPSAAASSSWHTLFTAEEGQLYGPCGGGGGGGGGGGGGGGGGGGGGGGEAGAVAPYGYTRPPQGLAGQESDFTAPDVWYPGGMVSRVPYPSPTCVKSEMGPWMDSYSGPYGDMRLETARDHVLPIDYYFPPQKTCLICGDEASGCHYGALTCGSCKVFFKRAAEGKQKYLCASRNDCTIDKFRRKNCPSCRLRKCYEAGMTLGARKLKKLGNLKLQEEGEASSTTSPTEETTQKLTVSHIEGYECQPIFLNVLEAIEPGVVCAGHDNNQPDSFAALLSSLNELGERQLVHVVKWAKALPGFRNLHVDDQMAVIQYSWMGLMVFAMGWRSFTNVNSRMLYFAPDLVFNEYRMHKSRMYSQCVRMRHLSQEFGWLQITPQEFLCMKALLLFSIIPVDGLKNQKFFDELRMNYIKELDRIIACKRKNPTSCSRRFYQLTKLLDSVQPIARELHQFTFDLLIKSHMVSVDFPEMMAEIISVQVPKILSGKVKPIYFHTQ
Chain of UniProt P16473 (P16473 whole entry, looked up): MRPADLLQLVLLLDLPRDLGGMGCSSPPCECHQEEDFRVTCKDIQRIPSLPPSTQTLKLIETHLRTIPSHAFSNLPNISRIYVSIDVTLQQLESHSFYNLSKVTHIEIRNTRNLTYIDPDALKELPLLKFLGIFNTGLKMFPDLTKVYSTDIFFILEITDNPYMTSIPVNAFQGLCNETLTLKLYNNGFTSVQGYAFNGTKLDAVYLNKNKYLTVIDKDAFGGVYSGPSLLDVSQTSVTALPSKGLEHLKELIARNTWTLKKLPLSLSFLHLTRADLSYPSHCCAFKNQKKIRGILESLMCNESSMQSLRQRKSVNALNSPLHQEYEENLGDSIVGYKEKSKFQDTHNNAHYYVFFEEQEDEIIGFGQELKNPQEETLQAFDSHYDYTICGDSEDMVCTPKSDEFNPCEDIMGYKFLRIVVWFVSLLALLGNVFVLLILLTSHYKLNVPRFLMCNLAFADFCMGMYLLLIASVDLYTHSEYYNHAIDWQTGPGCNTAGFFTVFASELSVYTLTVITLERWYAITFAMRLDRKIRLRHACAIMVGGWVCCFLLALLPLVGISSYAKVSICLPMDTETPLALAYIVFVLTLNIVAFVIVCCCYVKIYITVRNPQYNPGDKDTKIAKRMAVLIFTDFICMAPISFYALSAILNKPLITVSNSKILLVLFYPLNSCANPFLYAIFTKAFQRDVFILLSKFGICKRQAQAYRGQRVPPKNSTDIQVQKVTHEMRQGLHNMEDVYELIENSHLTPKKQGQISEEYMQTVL

O=NN1CCCC1
Potency [1, 14]: inconclusive: 22.7 µM [rising, full curve] | Potency [2]: inconclusive: 20.2 µM | Potency [3]: inconclusive: 16.1 µM [cytotoxic, full curve] | Potency [4]: inconclusive: 22.7 µM [cytotoxic, partial curve, poor fit] | Potency [5]: inconclusive: 20.2 µM [rising, full curve] | Potency [6]: inconclusive: 28.6 µM [cytotoxic, partial curve]

NCCc1ccc(O)cc1
Potency [1, 14]: inactive | Potency [2]: inconclusive: 42.9 µM [rising, partial curve, poor fit] | Potency [7]: active: 60.6 µM | Potency [3]: inconclusive: 54 µM [cytotoxic, partial curve] | Potency [8]: inconclusive: 34.1 µM [fluorescent, partial curve, poor fit] | Potency [9]: inconclusive: 54 µM [cytotoxic, partial curve, poor fit] | Potency [6]: active: 21.5 µM

Nc1ccc(Cl)cc1C(=O)c1ccccc1F
activation [1, 14]: inconclusive: 1.19% [at 42.5 µM] | activity, negative = inhibition [2]: inconclusive: -32.2% [at 42.5 µM] | Potency [10]: inactive | Potency [4]: inconclusive: 29.8 µM [cytotoxic] | Potency [5]: inconclusive: 11.9 µM

Fc1cccc(Cl)c1CCl
Potency [1, 14]: inactive

CCC[N+](=O)[O-]
Potency [1, 14]: inconclusive: 6.73 µM [rising, full curve] | Potency [2]: inconclusive: 8.48 µM [full curve] | Potency [11]: inconclusive: 47.7 µM [cytotoxic, partial curve, poor fit] | Potency [7]: active: 8.48 µM and inactive | activation [8]: inconclusive: -12.8% and inconclusive: 23.3% | Potency [5]: active: 8.48 µM | Potency [6]: active: 19 µM

O=C1c2ccccc2C(=O)C1C(=O)C(c1ccccc1)c1ccccc1
Potency [1, 14]: inactive | Potency [2]: active: 23.7 µM | Potency [7]: inactive | Potency [3]: inactive | activity change, negative = inhibition [5]: inconclusive: -15.5% [at 42.5 µM]

[Cl][Sn]([c]1ccccc1)([c]1ccccc1)[c]1ccccc1
Potency [1, 14]: inconclusive: 1.16 µM [rising, full curve] | Potency [2]: inconclusive: 1.16 µM [rising, full curve] | Potency [11]: active: 1.16 µM | Potency [4]: active: 11.6 µM | activation [8]: inconclusive: -12.3% [at 19 µM] | Potency [5]: inconclusive: 0.231 µM [rising, full curve] | Potency [9]: active: 1.3 µM | Potency [6]: active: 1.64 µM | Potency [12]: active: 2.61 µM

CCCCNP(N)(N)=S
Potency [1, 14]: inconclusive: 13.7 µM [activator, full curve]

N#Cc1cc(I)c(O)c(I)c1
Potency [1, 14]: inconclusive: 30.6 µM [rising, partial curve] | Potency [2]: inconclusive: 13.7 µM | Potency [11]: inconclusive: 68.6 µM [cytotoxic, single point] | Potency [4]: active: 48.6 µM | activity change, negative = inhibition [5]: inconclusive: -47.4% | Potency [9]: inconclusive: 13.7 µM [rising, full curve, poor fit] | Potency [6]: inconclusive: 8.63 µM [rising, full curve]

Oc1ccc(C(=C(Cl)Cl)c2ccc(O)cc2)cc1
Potency [1, 14]: inconclusive: 54.4 µM [rising, partial curve] | Potency [2]: active: 3.43 µM | Potency [7]: active: 68.5 µM | Potency [4]: inconclusive: 68.5 µM [cytotoxic] | Potency [8]: inconclusive: 13.7 µM [cytotoxic, full curve] | Potency [5]: inconclusive: 9.67 µM [rising, full curve] | Potency [9]: inconclusive: 76.8 µM [cytotoxic, single point] | Potency [6]: inconclusive: 13.7 µM [rising, partial curve]

C[C@]12CC[C@H]3[C@@H](CCC4=CC(=O)CC[C@@H]43)[C@@H]1CC[C@@H]2OC(=O)CCc1ccco1
Potency [1, 14]: active: 2.66 µM | Potency [2]: inconclusive: 5.96 µM [activator, full curve] | Potency [10]: active: 0.0237 µM | Potency [13]: inconclusive: 33.5 µM [falling, single point] | Potency [8]: active: 0.841 µM | Potency [5]: inactive | Potency [6]: inconclusive: 1.5 µM [rising, partial curve]

COP(=S)(OC)Oc1nc(Cl)c(Cl)cc1Cl
Potency [1, 14]: inconclusive: 13.7 µM [rising, partial curve] | Potency [2]: inconclusive: 43.2 µM [fluorescent, partial curve] | Potency [7]: inconclusive: 68.5 µM [cytotoxic, single point] | Potency [3]: inconclusive: 54.4 µM [cytotoxic] | Potency [9]: inconclusive: 34.3 µM [cytotoxic, partial curve, poor fit] | Potency [6]: inconclusive: 48.5 µM [cytotoxic, partial curve, poor fit]

Cc1cc(C)cc(C)c1
activation [1, 14]: inconclusive: 2.33% | activation ([1]; at 92.4 µM (top of the series)): inactive: 1.46%

CCC(C(N)=O)N1CCCC1=O (centres undefined)
Potency [1, 14]: inactive | Potency [2]: inactive

COc1ccc(OC)c(CC(C)N)c1 (centres undefined)
Potency [1, 14]: inactive
